This note sets out measurements from article PMC12136788.

T1: UNK ZnF1-3 (human, UniProt Q9C0B0 31-174)
T1 sequence: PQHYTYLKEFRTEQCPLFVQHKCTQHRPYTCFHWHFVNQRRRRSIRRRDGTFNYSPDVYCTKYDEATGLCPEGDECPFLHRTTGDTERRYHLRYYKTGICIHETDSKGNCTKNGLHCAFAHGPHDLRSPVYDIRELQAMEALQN

B1: chr4:137866854:137866855:+_ENSMUSG00000028757_ENSMUST00000030538|mus_mus|motif|central (ssRNA)
RNA: GGGAGUUCUACAGUCCGACGAUCGUCAUCACCAUCAAAGGGGACCCACUUGCCAUUGGAGAGCUGUUCUAUGAUGAUGCGGUACUCCACCAAGUCGGUGACAGUGUAGGCAUUGGGUGGAGCCAUCUCGCCCACCCGGUGAUGCAACAGAGGAUUGAGCAUCA
B2: chr1:23636438:23636439:-_ENSG00000125944_ENST00000302271|hu_hu|motif|central (ssRNA)
RNA: GGGAGUUCUACAGUCCGACGAUCUUGUAGGGCAGAUUUCAAAAAGGUGUGAAGUUAUAACAAUUUAAAAACACAGUUAACCGGCUUCUAGGAAUGCAAAACAUACAAUCAUAGGUUAUUUUCAAUACAAGAAAACUUAAAUUUCAACAGAGGAUUGAGCAUCA
B3: chr3:176767854:176767855:-_ENSG00000177565_ENST00000430069|hu_hu|hu_hu_hu_mus_False|28_98 (ssRNA)
RNA: GGGAGUUCUACAGUCCGACGAUCGACAUCCUUGUUACUUGGAACAUCCUGCCCUCCUUCCCGUAUGCAGUGUCUAAGCACGAGCUGCGUAGGGCCACUCGUGCUGUUCUCACUAAGGUUCCAGAUUCUUGCCGUGGAGUCUCCCAACAGAGGAUUGAGCAUCA
B4: 18880459_18880579_3152_CDS_ENSG00000157106_ENST00000446231|human|control|control (ssRNA)
RNA: GGGAGUUCUACAGUCCGACGAUCCAGUGGGGUUCUCAGCUUAGAAAGAACAGUGAAUUGUGCAGCUUCCCAUAUGGCCCACUGCCAAAGGACAGCAUCUGUCUUCAGGAGAUUGCGUGGAAUUGUUGACUGGUCACGCUUAUCCAACAGAGGAUUGAGCAUCA
B5: chr17:55757426:55757427:+_ENSG00000153944_ENST00000284073|hu_hu|FALSE|FALSE (ssRNA)
RNA: GGGAGUUCUACAGUCCGACGAUCAGAAAGCUCACGCCCACCUCCCGCCCUGCACUUCACAACUUUGCUUCAGUGUGUGCUAAAGUUCCACCUGAAAAUUCAUACAGUCUCAGAAUUGGUACCAAAAUAUGGAGAGUCAUAUUACAACAGAGGAUUGAGCAUCA
B6: chr11:98018192:98018193:-_ENSMUSG00000018160_ENSMUST00000107545|mus_hu|FALSE|FALSE (ssRNA)
RNA: GGGAGUUCUACAGUCCGACGAUCUCCUGCACUGCCUGGCGAUUUAGAUCCACCUGUACUGGUAGGUGGGGUAAAAGGUCUGUUAGAAGAACUAUGAGAUGGAGACUUUCCCUCAGUGUCUGCCUUCUUCCGCUUUGGAGGCUUCAACAGAGGAUUGAGCAUCA
B7: chr13:104848895:104848896:-_ENSMUSG00000021710_ENSMUST00000109315|mus_hu|motif|central (ssRNA)
RNA: GGGAGUUCUACAGUCCGACGAUCAGGGAAAUAGUGUGGAUAUUUUAAGGUAAUUUUAUACUUGUCAUCAUCUGUCUUUUCGGAACUGUCAAUGAAAUCAUCAGGAAGAGCACCAAGUUCAGCCUUGGAAAAUACAAGGAAGGUCAACAGAGGAUUGAGCAUCA
B8: chr19:16212804:16212805:+_ENSG00000167460_ENST00000300933|hu_mus|hu_hu_hu_mus_False|18_98 (ssRNA)
RNA: GGGAGUUCUACAGUCCGACGAUCAACAAUUCUGGAGAAGAACAUCAAUGUAACAUGGAACAGCAUUAAAGCUCAGUCAGAAGGCACAUGGGCAACAAUGAUCACCCCAGCAUUCUCCUACGUUGACCUUAAAGACAAUCUGUUCAACAGAGGAUUGAGCAUCA
B9: chr7:143080189:143080190:+_ENSG00000159840_ENST00000392910|hu_mus|FALSE|FALSE (ssRNA)
RNA: GGGAGUUCUACAGUCCGACGAUCUGGAGCACCAGGGCUGAACUUGGAAACCACGGGAGUAAAUUUAGGAGCCACUGGAGCAAACUUAGGUGCUGGAGUUGGUGCCUGAGAAAGGGGACCCCGGGGCUGUGUAUUAGCAGAAGACAACAGAGGAUUGAGCAUCA
B10: chrX:20248820:20248821:+_ENSMUSG00000001924_ENSMUST00000001989|mus_mus|mus_mus_mus_hu_True|48_58 (ssRNA)
RNA: GGGAGUUCUACAGUCCGACGAUCGGCGAAGUCCGUCACCACAAAGUCAGGUUCUGCCAGUGAGGCCACCAAGGAUUUAAAACUAAUCUUUUUCGGUACUUUGACCUGACUGACGAUGCCUCCACGGAUGUAGUCGGAGAAGUUCAACAGAGGAUUGAGCAUCA
B11: chr2:216981417:216981418:+_ENSG00000079246_ENST00000392132|hu_hu|hu_hu_hu_mus_True|28_88 (ssRNA)
RNA: GGGAGUUCUACAGUCCGACGAUCCUGAUACUGGUCCUUGCCAGCAAGGGGAUUGUCAGUGCCAUCUGUGCCAUAGAGGACUAACGCAAUCUCAUCUUUGCUCUCCGCAAACACCUGUCGUUGGACAAACAUAGUCAUCACUUUCAACAGAGGAUUGAGCAUCA
B12: chr2:179515052:179515053:+_ENSMUSG00000000305_ENSMUST00000000314|mus_hu|mus_mus_mus_hu_False|58_108 (ssRNA)
RNA: GGGAGUUCUACAGUCCGACGAUCGCUUUCCCGCGCAGUCACCGUGAACGCCACCUGCUCGGAGGGGACCUGCAGCUCCCUAGUGGCGAAGACUGUCCCAUCUGCCCCAACUUUGAAGUCCAUGCUGUUGGUCUCAUAUUGUGUCAACAGAGGAUUGAGCAUCA
B13: chrX:153990882:153990883:-_ENSMUSG00000046873_ENSMUST00000058098|mus_hu|motif|central (ssRNA)
RNA: GGGAGUUCUACAGUCCGACGAUCAGCUCCUGAGAGGGAAAUCAGGUACUUGACAAAUGUCUCCACAACCACUGGCAGAUCGGUGCUUAGAAAGUUAAAACGUGGGAUAAAACUGGUGAUGCUCACUGUGUAGUGAAGAUGCAGCAACAGAGGAUUGAGCAUCA
B14: 195013173_195016455_1944_3pUTR_ENSG00000114331_ENST00000326793|human|control|control (ssRNA)
RNA: GGGAGUUCUACAGUCCGACGAUCUUCUCCUUCAGGCUCAUAUAAACUAUUGGCUGACACCGUGGAGGGUAAAGAUUCUCUUCCAUCAUCAGAGCUCUGCUGAAUUCCACUGUCAUUACUUCUGACUGAACUUUGGGCAGAUGCCAACAGAGGAUUGAGCAUCA

This is one part of the list.

This assay concerns the target T1, UNK ZnF1-3. Briefly: nsRBNS (natural sequence RNA bind-n-seq); RBNS binding buffer (assumed for nsRBNS): 25 mM Tris pH 7.5, 150 mM KCl, 3 mM MgCl2, 0.01% Triton X-100, 500 ug/ml BSA, 20 U/ml SUPERase-In, 4 C; UNK is unkempt and MSI1 is Musashi-1; names of the RNAs are library labels; protein concentration not given here; high values mean tight binding.
As to B1, the binding signal worked out at 0.962 enrichment R.

Molecule B2 had a binding signal of 3.09 enrichment R.

The molecule B3 returned a binding signal of 0.6 enrichment R.

In the case of B4, the binding signal was determined as 0.759 enrichment R.

The molecule B5 showed a binding signal of 1.62 enrichment R.

B6 yielded a binding signal of 0.747 enrichment R.

With B7, the binding signal was determined as 2.59 enrichment R.

For the molecule B8, the binding signal is 1.49 enrichment R.

The molecule B9 had a binding signal of 2.14 enrichment R.

As to B10, the binding signal is 1.04 enrichment R.

B11 registered a binding signal of 1.13 enrichment R.

The molecule B12 came in with a binding signal of 0.74 enrichment R.

Turning to B13, the binding signal amounted to 2.07 enrichment R.

As to B14, the binding signal is 1.01 enrichment R.
